{"source": "the supplement of paper PMC8728848", "binders": {"B1": {"name": "GNL (Galanthus nivalis) (protein)", "chain": "MGHHHHHHHHYGTLENGHWLMVGMSIFSKDRTVELRMQDDGKLAIYYNDHCAWQSTAQQVNNAKGAVMQGDGNFCIYDKNGKATWHTNTAAPSGDSHTFVSVQDDGNLVLYKNNGATPIWSSKSNK"}}, "test_in_all_cases": "glycan array binding signal (z-score within array); higher = stronger binding", "conditions_in_all_cases": "glycan notation: IUPAC condensed, linker removed", "key": {"Fuc(a1-3)GlcNAc": {"molecular_target": "Fuc(a1-3)GlcNAc", "how_it_was_run": "(§1)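 From the Consortium for Functional Glycomics database, 3228 arrays were curated, keeping only those whose protein sequence was available. Binding is given as a within-array Z-score averaged across arrays sharing a protein sequence and across linkers. Negative Z-scores can be read as non-binding.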"}, "[1]": {"molecular_target": "Fuc(a1-3)[Gal(b1-4)]Glc6S", "how_it_was_run": "as §1"}, "[2]": {"molecular_target": "Fuc(a1-3)[Gal(b1-4)]GlcNAc", "how_it_was_run": "as §1"}, "[3]": {"molecular_target": "Fuc(a1-3)[Gal(b1-4)]GlcNAc(b1-2)Man", "how_it_was_run": "as §1"}, "[4]": {"molecular_target": "Fuc(a1-3)[Gal(b1-4)]GlcNAc(b1-2)Man(a1-3)[Fuc(a1-3)[Gal(b1-4)]GlcNAc(b1-2)Man(a1-6)]Man(b1-4)GlcNAc(b1-4)GlcNAc", "how_it_was_run": "as §1"}, "[5]": {"molecular_target": "Fuc(a1-3)[Gal(b1-4)]GlcNAc(b1-2)Man(a1-3)[Fuc(a1-3)[Gal(b1-4)]GlcNAc(b1-2)Man(a1-6)]Man(b1-4)GlcNAc(b1-4)[Fuc(a1-6)]GlcNAc", "how_it_was_run": "as §1"}, "[6]": {"molecular_target": "Fuc(a1-3)[Gal(b1-4)]GlcNAc(b1-3)Gal(b1-3)[Fuc(a1-4)]GlcNAc", "how_it_was_run": "as §1"}, "[7]": {"molecular_target": "Fuc(a1-3)[Gal(b1-4)]GlcNAc(b1-3)Gal(b1-4)[Fuc(a1-3)]GlcNAc", "how_it_was_run": "as §1"}, "[8]": {"molecular_target": "Fuc(a1-3)[Gal(b1-4)]GlcNAc(b1-3)Gal(b1-4)[Fuc(a1-3)]GlcNAc(b1-3)Gal(b1-4)[Fuc(a1-3)]GlcNAc", "how_it_was_run": "as §1"}, "[9]": {"molecular_target": "Fuc(a1-3)[Gal(b1-4)]GlcNAc(b1-3)GalNAc", "how_it_was_run": "as §1"}, "[10]": {"molecular_target": "Fuc(a1-3)[Gal(b1-4)]GlcNAc(b1-6)GalNAc", "how_it_was_run": "as §1"}, "[11]": {"molecular_target": "Fuc(a1-3)[Gal(b1-4)]GlcNAc(b1-6)[Gal(b1-3)GlcNAc(b1-3)]Gal(b1-4)Glc", "how_it_was_run": "as §1"}, "[12]": {"molecular_target": "Fuc(a1-3)[Gal(b1-4)]GlcNAc6S", "how_it_was_run": "as §1"}, "[13]": {"molecular_target": "Fuc(a1-3)[Gal3S(b1-4)]Glc", "how_it_was_run": "as §1"}, "[14]": {"molecular_target": "Fuc(a1-3)[Gal3S(b1-4)]GlcNAc", "how_it_was_run": "as §1"}, "[15]": {"molecular_target": "Fuc(a1-3)[Gal3S(b1-4)]GlcNAc6S", "how_it_was_run": "as §1"}, "[16]": {"molecular_target": "Fuc(a1-3)[GalNAc(b1-4)]GlcNAc", "how_it_was_run": "as §1"}, "[17]": {"molecular_target": "Fuc(a1-3)[GalNAc(b1-4)]GlcNAc6S", "how_it_was_run": "as §1"}, "Fuc(a1-4)GlcNAc": {"molecular_target": "Fuc(a1-4)GlcNAc", "how_it_was_run": "as §1"}, "Fuc(b1-3)GlcNAc": {"molecular_target": "Fuc(b1-3)GlcNAc", "how_it_was_run": "as §1"}, "Gal(a1-2)Gal": {"molecular_target": "Gal(a1-2)Gal", "how_it_was_run": "as §1"}, "Gal(a1-3)Gal": {"molecular_target": "Gal(a1-3)Gal", "how_it_was_run": "as §1"}, "Gal(a1-3)Gal(b1-3)GlcNAc": {"molecular_target": "Gal(a1-3)Gal(b1-3)GlcNAc", "how_it_was_run": "as §1"}, "[18]": {"molecular_target": "Gal(a1-3)Gal(b1-3)GlcNAc(b1-2)Man", "how_it_was_run": "as §1"}, "[19]": {"molecular_target": "Gal(a1-3)Gal(b1-3)GlcNAc(b1-2)Man(a1-3)[Gal(a1-3)Gal(b1-3)GlcNAc(b1-2)Man(a1-6)]Man(b1-4)GlcNAc(b1-4)GlcNAc", "how_it_was_run": "as §1"}, "[20]": {"molecular_target": "Gal(a1-3)Gal(b1-3)GlcNAc(b1-3)GalNAc", "how_it_was_run": "as §1"}, "[21]": {"molecular_target": "Gal(a1-3)Gal(b1-3)GlcNAc(b1-6)GalNAc", "how_it_was_run": "as §1"}, "[22]": {"molecular_target": "Gal(a1-3)Gal(b1-3)[Fuc(a1-4)]GlcNAc(b1-2)Man(a1-3)[Gal(a1-3)Gal(b1-3)[Fuc(a1-4)]GlcNAc(b1-2)Man(a1-6)]Man(b1-4)GlcNAc(b1-4)GlcNAc", "how_it_was_run": "as §1"}, "Gal(a1-3)Gal(b1-4)Glc": {"molecular_target": "Gal(a1-3)Gal(b1-4)Glc", "how_it_was_run": "as §1"}, "Gal(a1-3)Gal(b1-4)GlcNAc": {"molecular_target": "Gal(a1-3)Gal(b1-4)GlcNAc", "how_it_was_run": "as §1"}, "[23]": {"molecular_target": "Gal(a1-3)Gal(b1-4)GlcNAc(b1-2)Man", "how_it_was_run": "as §1"}, "[24]": {"molecular_target": "Gal(a1-3)Gal(b1-4)GlcNAc(b1-2)Man(a1-3)[Gal(a1-3)Gal(b1-4)GlcNAc(b1-2)Man(a1-6)]Man(b1-4)GlcNAc(b1-4)GlcNAc", "how_it_was_run": "as §1"}, "[25]": {"molecular_target": "Gal(a1-3)Gal(b1-4)GlcNAc(b1-3)GalNAc", "how_it_was_run": "as §1"}, "[26]": {"molecular_target": "Gal(a1-3)Gal(b1-4)GlcNAc(b1-6)GalNAc", "how_it_was_run": "as §1"}, "[27]": {"molecular_target": "Gal(a1-3)Gal(b1-4)[Fuc(a1-3)]GlcNAc", "how_it_was_run": "as §1"}, "[28]": {"molecular_target": "Gal(a1-3)Gal(b1-4)[Fuc(a1-3)]GlcNAc(b1-2)Man(a1-3)[Gal(a1-3)Gal(b1-4)[Fuc(a1-3)]GlcNAc(b1-2)Man(a1-6)]Man(b1-4)GlcNAc(b1-4)GlcNAc", "how_it_was_run": "as §1"}, "Gal(a1-3)GalNAc": {"molecular_target": "Gal(a1-3)GalNAc", "how_it_was_run": "as §1"}, "[29]": {"molecular_target": "Gal(a1-3)[Gal(a1-4)]Gal(b1-4)GlcNAc", "how_it_was_run": "as §1"}, "[30]": {"molecular_target": "Gal(a1-4)Gal(b1-3)GlcNAc(b1-2)Man(a1-3)[Gal(a1-4)Gal(b1-3)GlcNAc(b1-2)Man(a1-6)]Man(b1-4)GlcNAc(b1-4)GlcNAc", "how_it_was_run": "as §1"}, "Gal(a1-4)Gal(b1-4)Glc": {"molecular_target": "Gal(a1-4)Gal(b1-4)Glc", "how_it_was_run": "as §1"}, "Gal(a1-4)Gal(b1-4)GlcNAc": {"molecular_target": "Gal(a1-4)Gal(b1-4)GlcNAc", "how_it_was_run": "as §1"}, "[31]": {"molecular_target": "Gal(a1-4)Gal(b1-4)GlcNAc(b1-2)Man(a1-3)[Gal(a1-4)Gal(b1-4)GlcNAc(b1-2)Man(a1-6)]Man(b1-4)GlcNAc(b1-4)GlcNAc", "how_it_was_run": "as §1"}, "[32]": {"molecular_target": "Gal(a1-4)Gal(b1-4)GlcNAc(b1-3)Gal(b1-4)Glc", "how_it_was_run": "as §1"}, "Gal(a1-4)GlcNAc": {"molecular_target": "Gal(a1-4)GlcNAc", "how_it_was_run": "as §1"}, "Gal(a1-6)Glc": {"molecular_target": "Gal(a1-6)Glc", "how_it_was_run": "as §1"}}, "note": "Some of the results follow."}
{"binder": "B1", "values": [{"measurement": "glycan array binding signal (z-score)", "setting": "Fuc(a1-3)GlcNAc", "value": -0.235}, {"measurement": "glycan array binding signal (z-score)", "setting": "[1]", "value": -0.266}, {"measurement": "glycan array binding signal (z-score)", "setting": "[2]", "value": -0.252}, {"measurement": "glycan array binding signal (z-score)", "setting": "[3]", "value": -0.18}, {"measurement": "glycan array binding signal (z-score)", "setting": "[4]", "value": 0.774}, {"measurement": "glycan array binding signal (z-score)", "setting": "[5]", "value": -0.176}, {"measurement": "glycan array binding signal (z-score)", "setting": "[6]", "value": -0.245}, {"measurement": "glycan array binding signal (z-score)", "setting": "[7]", "value": -0.208}, {"measurement": "glycan array binding signal (z-score)", "setting": "[8]", "value": -0.24}, {"measurement": "glycan array binding signal (z-score)", "setting": "[9]", "value": -0.167}, {"measurement": "glycan array binding signal (z-score)", "setting": "[10]", "value": -0.213}, {"measurement": "glycan array binding signal (z-score)", "setting": "[11]", "value": -0.224}, {"measurement": "glycan array binding signal (z-score)", "setting": "[12]", "value": -0.239}, {"measurement": "glycan array binding signal (z-score)", "setting": "[13]", "value": -0.237}, {"measurement": "glycan array binding signal (z-score)", "setting": "[14]", "value": -0.069}, {"measurement": "glycan array binding signal (z-score)", "setting": "[15]", "value": -0.266}, {"measurement": "glycan array binding signal (z-score)", "setting": "[16]", "value": 0.274}, {"measurement": "glycan array binding signal (z-score)", "setting": "[17]", "value": -0.181}, {"measurement": "glycan array binding signal (z-score)", "setting": "Fuc(a1-4)GlcNAc", "value": -0.198}, {"measurement": "glycan array binding signal (z-score)", "setting": "Fuc(b1-3)GlcNAc", "value": -0.156}, {"measurement": "glycan array binding signal (z-score)", "setting": "Gal(a1-2)Gal", "value": -0.287}, {"measurement": "glycan array binding signal (z-score)", "setting": "Gal(a1-3)Gal", "value": -0.245}, {"measurement": "glycan array binding signal (z-score)", "setting": "Gal(a1-3)Gal(b1-3)GlcNAc", "value": -0.269}, {"measurement": "glycan array binding signal (z-score)", "setting": "[18]", "value": -0.211}, {"measurement": "glycan array binding signal (z-score)", "setting": "[19]", "value": -0.127}, {"measurement": "glycan array binding signal (z-score)", "setting": "[20]", "value": -0.231}, {"measurement": "glycan array binding signal (z-score)", "setting": "[21]", "value": -0.22}, {"measurement": "glycan array binding signal (z-score)", "setting": "[22]", "value": -0.108}, {"measurement": "glycan array binding signal (z-score)", "setting": "Gal(a1-3)Gal(b1-4)Glc", "value": -0.279}, {"measurement": "glycan array binding signal (z-score)", "setting": "Gal(a1-3)Gal(b1-4)GlcNAc", "value": -0.275}, {"measurement": "glycan array binding signal (z-score)", "setting": "[23]", "value": -0.268}, {"measurement": "glycan array binding signal (z-score)", "setting": "[24]", "value": 3.44}, {"measurement": "glycan array binding signal (z-score)", "setting": "[25]", "value": -0.119}, {"measurement": "glycan array binding signal (z-score)", "setting": "[26]", "value": -0.264}, {"measurement": "glycan array binding signal (z-score)", "setting": "[27]", "value": -0.243}, {"measurement": "glycan array binding signal (z-score)", "setting": "[28]", "value": -0.054}, {"measurement": "glycan array binding signal (z-score)", "setting": "Gal(a1-3)GalNAc", "value": -0.219}, {"measurement": "glycan array binding signal (z-score)", "setting": "[29]", "value": -0.01}, {"measurement": "glycan array binding signal (z-score)", "setting": "[30]", "value": 4.92}, {"measurement": "glycan array binding signal (z-score)", "setting": "Gal(a1-4)Gal(b1-4)Glc", "value": -0.168}, {"measurement": "glycan array binding signal (z-score)", "setting": "Gal(a1-4)Gal(b1-4)GlcNAc", "value": -0.126}, {"measurement": "glycan array binding signal (z-score)", "setting": "[31]", "value": 5.71}, {"measurement": "glycan array binding signal (z-score)", "setting": "[32]", "value": -0.189}, {"measurement": "glycan array binding signal (z-score)", "setting": "Gal(a1-4)GlcNAc", "value": -0.291}, {"measurement": "glycan array binding signal (z-score)", "setting": "Gal(a1-6)Glc", "value": -0.324}]}
